Test results reported in article PMC4751553.
These are yes or no findings as the source states them, for the method shown. In cells and extracts the contact can be indirect. Some binding calls cover weakened binding; strength is not graded here. Tags and fused reporters may be left off the sequences shown.

T1: Rvs161p tagged with an internal FLAG tag inserted after amino acid 85 (wild type) (S. cerevisiae) (UniProt P25343)
T1 sequence: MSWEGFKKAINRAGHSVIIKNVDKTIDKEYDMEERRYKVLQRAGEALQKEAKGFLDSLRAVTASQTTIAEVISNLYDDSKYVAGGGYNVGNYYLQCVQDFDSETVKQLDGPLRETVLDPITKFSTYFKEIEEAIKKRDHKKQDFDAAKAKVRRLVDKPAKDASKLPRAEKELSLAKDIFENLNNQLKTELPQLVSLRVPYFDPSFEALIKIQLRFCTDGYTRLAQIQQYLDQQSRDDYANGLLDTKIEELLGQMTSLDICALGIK

B1: Fus2p^415–677 (GFP-tagged N-terminal truncation) (domain or fragment, UniProt Q05670 415-677)
chain: MINLKMDEETEFFTLADHISKFKKVMKGLLELKKNLLKNDLSGIIDISLRRINAWKKVIECERPSGAFFAHDNLISTMCSSYIDKLHEQKNQVTILKLTELETDVMNPLERIIAHCTTVKSKLKDLQALKKDYMLFLQEKKANVRDIKRDLLGMHFQNLQNQMKRELPVFITLIHDTIECILLNYIKVFLKYLEIIAGGKKYLQKDLENMSLNDSIATGQIKNLDILQCYSKSRYMTKRMVRKDWPFPGDPSGSRVVRKLFEL
B2: Fus2p^415–626 fused to GFP (domain or fragment, UniProt Q05670 415-626)
chain: MINLKMDEETEFFTLADHISKFKKVMKGLLELKKNLLKNDLSGIIDISLRRINAWKKVIECERPSGAFFAHDNLISTMCSSYIDKLHEQKNQVTILKLTELETDVMNPLERIIAHCTTVKSKLKDLQALKKDYMLFLQEKKANVRDIKRDLLGMHFQNLQNQMKRELPVFITLIHDTIECILLNYIKVFLKYLEIIAGGKKYLQKDLENMSL
B3: Fus2p^415–626 Y496A fused to GFP (domain or fragment, UniProt Q05670 415-626)
chain: MINLKMDEETEFFTLADHISKFKKVMKGLLELKKNLLKNDLSGIIDISLRRINAWKKVIECERPSGAFFAHDNLISTMCSSAIDKLHEQKNQVTILKLTELETDVMNPLERIIAHCTTVKSKLKDLQALKKDYMLFLQEKKANVRDIKRDLLGMHFQNLQNQMKRELPVFITLIHDTIECILLNYIKVFLKYLEIIAGGKKYLQKDLENMSL
B4: Fus2p^415–626 Y606A fused to GFP (domain or fragment, UniProt Q05670 415-626)
chain: MINLKMDEETEFFTLADHISKFKKVMKGLLELKKNLLKNDLSGIIDISLRRINAWKKVIECERPSGAFFAHDNLISTMCSSYIDKLHEQKNQVTILKLTELETDVMNPLERIIAHCTTVKSKLKDLQALKKDYMLFLQEKKANVRDIKRDLLGMHFQNLQNQMKRELPVFITLIHDTIECILLNYIKVFLKALEIIAGGKKYLQKDLENMSL
B5: Fus2p^415–626 Y616A fused to GFP (domain or fragment, UniProt Q05670 415-626)
chain: MINLKMDEETEFFTLADHISKFKKVMKGLLELKKNLLKNDLSGIIDISLRRINAWKKVIECERPSGAFFAHDNLISTMCSSYIDKLHEQKNQVTILKLTELETDVMNPLERIIAHCTTVKSKLKDLQALKKDYMLFLQEKKANVRDIKRDLLGMHFQNLQNQMKRELPVFITLIHDTIECILLNYIKVFLKYLEIIAGGKKALQKDLENMSL
B6: Fus2p^415–626 F603A fused to GFP (domain or fragment, UniProt Q05670 415-626)
chain: MINLKMDEETEFFTLADHISKFKKVMKGLLELKKNLLKNDLSGIIDISLRRINAWKKVIECERPSGAFFAHDNLISTMCSSYIDKLHEQKNQVTILKLTELETDVMNPLERIIAHCTTVKSKLKDLQALKKDYMLFLQEKKANVRDIKRDLLGMHFQNLQNQMKRELPVFITLIHDTIECILLNYIKVALKYLEIIAGGKKYLQKDLENMSL
B7: Fus2p-GFP with E580 mutated to alanine (protein, UniProt Q05670 1-677)
chain: MFKTSYNLYDLNYPKNDSLTPIRDYKNDYFHKNDDKLPEIVRKPTRKLSKHENKLNDKKFTNKRPASLDLHSIVESLSNKKIYSPINTEIFQNVVRLNLSPQIPNSPHEGCKFYKIVQEFYLSEVEYYNNLLTANNVYRKALNSDPRFKNKLVKLDSSDELLLFGNIDTIASISKILVTAIKDLLLAKQRGKMLDANEWQKIFTKNEVQQQLYSTFDISEAFEQHLLRIKSTYTSYFVSHQKQMELFTTLRMNKNHFFNKWYEYCLKESGCIKLEDILKSPMKRLTQWIDTLETLESCYEDILSPELGLKLSPTRRKYSLFSNKLETEVSEYKSNSMYNFSLTPSEIIQSYDEDQFTHLLKPPDKQNKNICNASRQESNLDNSRVPSLLSGSSSYYSDVSGLEIVTNTSTASAEMINLKMDEETEFFTLADHISKFKKVMKGLLELKKNLLKNDLSGIIDISLRRINAWKKVIECERPSGAFFAHDNLISTMCSSYIDKLHEQKNQVTILKLTELETDVMNPLERIIAHCTTVKSKLKDLQALKKDYMLFLQEKKANVRDIKRDLLGMHFQNLQNQMKRALPVFITLIHDTIECILLNYIKVFLKYLEIIAGGKKYLQKDLENMSLNDSIATGQIKNLDILQCYSKSRYMTKRMVRKDWPFPGDPSGSRVVRKLFEL
B8: Fus2p-GFP with L581 mutated to alanine (protein, UniProt Q05670 1-677)
chain: MFKTSYNLYDLNYPKNDSLTPIRDYKNDYFHKNDDKLPEIVRKPTRKLSKHENKLNDKKFTNKRPASLDLHSIVESLSNKKIYSPINTEIFQNVVRLNLSPQIPNSPHEGCKFYKIVQEFYLSEVEYYNNLLTANNVYRKALNSDPRFKNKLVKLDSSDELLLFGNIDTIASISKILVTAIKDLLLAKQRGKMLDANEWQKIFTKNEVQQQLYSTFDISEAFEQHLLRIKSTYTSYFVSHQKQMELFTTLRMNKNHFFNKWYEYCLKESGCIKLEDILKSPMKRLTQWIDTLETLESCYEDILSPELGLKLSPTRRKYSLFSNKLETEVSEYKSNSMYNFSLTPSEIIQSYDEDQFTHLLKPPDKQNKNICNASRQESNLDNSRVPSLLSGSSSYYSDVSGLEIVTNTSTASAEMINLKMDEETEFFTLADHISKFKKVMKGLLELKKNLLKNDLSGIIDISLRRINAWKKVIECERPSGAFFAHDNLISTMCSSYIDKLHEQKNQVTILKLTELETDVMNPLERIIAHCTTVKSKLKDLQALKKDYMLFLQEKKANVRDIKRDLLGMHFQNLQNQMKREAPVFITLIHDTIECILLNYIKVFLKYLEIIAGGKKYLQKDLENMSLNDSIATGQIKNLDILQCYSKSRYMTKRMVRKDWPFPGDPSGSRVVRKLFEL
B9: Fus2p-GFP with P582 mutated to alanine (protein, UniProt Q05670 1-677)
chain: MFKTSYNLYDLNYPKNDSLTPIRDYKNDYFHKNDDKLPEIVRKPTRKLSKHENKLNDKKFTNKRPASLDLHSIVESLSNKKIYSPINTEIFQNVVRLNLSPQIPNSPHEGCKFYKIVQEFYLSEVEYYNNLLTANNVYRKALNSDPRFKNKLVKLDSSDELLLFGNIDTIASISKILVTAIKDLLLAKQRGKMLDANEWQKIFTKNEVQQQLYSTFDISEAFEQHLLRIKSTYTSYFVSHQKQMELFTTLRMNKNHFFNKWYEYCLKESGCIKLEDILKSPMKRLTQWIDTLETLESCYEDILSPELGLKLSPTRRKYSLFSNKLETEVSEYKSNSMYNFSLTPSEIIQSYDEDQFTHLLKPPDKQNKNICNASRQESNLDNSRVPSLLSGSSSYYSDVSGLEIVTNTSTASAEMINLKMDEETEFFTLADHISKFKKVMKGLLELKKNLLKNDLSGIIDISLRRINAWKKVIECERPSGAFFAHDNLISTMCSSYIDKLHEQKNQVTILKLTELETDVMNPLERIIAHCTTVKSKLKDLQALKKDYMLFLQEKKANVRDIKRDLLGMHFQNLQNQMKRELAVFITLIHDTIECILLNYIKVFLKYLEIIAGGKKYLQKDLENMSLNDSIATGQIKNLDILQCYSKSRYMTKRMVRKDWPFPGDPSGSRVVRKLFEL
B10: Fus2p^1–660 (GFP-tagged C-terminal truncation) (domain or fragment, UniProt Q05670 1-660)
chain: MFKTSYNLYDLNYPKNDSLTPIRDYKNDYFHKNDDKLPEIVRKPTRKLSKHENKLNDKKFTNKRPASLDLHSIVESLSNKKIYSPINTEIFQNVVRLNLSPQIPNSPHEGCKFYKIVQEFYLSEVEYYNNLLTANNVYRKALNSDPRFKNKLVKLDSSDELLLFGNIDTIASISKILVTAIKDLLLAKQRGKMLDANEWQKIFTKNEVQQQLYSTFDISEAFEQHLLRIKSTYTSYFVSHQKQMELFTTLRMNKNHFFNKWYEYCLKESGCIKLEDILKSPMKRLTQWIDTLETLESCYEDILSPELGLKLSPTRRKYSLFSNKLETEVSEYKSNSMYNFSLTPSEIIQSYDEDQFTHLLKPPDKQNKNICNASRQESNLDNSRVPSLLSGSSSYYSDVSGLEIVTNTSTASAEMINLKMDEETEFFTLADHISKFKKVMKGLLELKKNLLKNDLSGIIDISLRRINAWKKVIECERPSGAFFAHDNLISTMCSSYIDKLHEQKNQVTILKLTELETDVMNPLERIIAHCTTVKSKLKDLQALKKDYMLFLQEKKANVRDIKRDLLGMHFQNLQNQMKRELPVFITLIHDTIECILLNYIKVFLKYLEIIAGGKKYLQKDLENMSLNDSIATGQIKNLDILQCYSKSRYMTKRMVRKDWP
B11: Fus2p^1–650 (GFP-tagged C-terminal truncation) (domain or fragment, UniProt Q05670 1-650)
chain: MFKTSYNLYDLNYPKNDSLTPIRDYKNDYFHKNDDKLPEIVRKPTRKLSKHENKLNDKKFTNKRPASLDLHSIVESLSNKKIYSPINTEIFQNVVRLNLSPQIPNSPHEGCKFYKIVQEFYLSEVEYYNNLLTANNVYRKALNSDPRFKNKLVKLDSSDELLLFGNIDTIASISKILVTAIKDLLLAKQRGKMLDANEWQKIFTKNEVQQQLYSTFDISEAFEQHLLRIKSTYTSYFVSHQKQMELFTTLRMNKNHFFNKWYEYCLKESGCIKLEDILKSPMKRLTQWIDTLETLESCYEDILSPELGLKLSPTRRKYSLFSNKLETEVSEYKSNSMYNFSLTPSEIIQSYDEDQFTHLLKPPDKQNKNICNASRQESNLDNSRVPSLLSGSSSYYSDVSGLEIVTNTSTASAEMINLKMDEETEFFTLADHISKFKKVMKGLLELKKNLLKNDLSGIIDISLRRINAWKKVIECERPSGAFFAHDNLISTMCSSYIDKLHEQKNQVTILKLTELETDVMNPLERIIAHCTTVKSKLKDLQALKKDYMLFLQEKKANVRDIKRDLLGMHFQNLQNQMKRELPVFITLIHDTIECILLNYIKVFLKYLEIIAGGKKYLQKDLENMSLNDSIATGQIKNLDILQCYSKSRYM
B12: Fus2p^1–640 (GFP-tagged C-terminal truncation) (domain or fragment, UniProt Q05670 1-640)
chain: MFKTSYNLYDLNYPKNDSLTPIRDYKNDYFHKNDDKLPEIVRKPTRKLSKHENKLNDKKFTNKRPASLDLHSIVESLSNKKIYSPINTEIFQNVVRLNLSPQIPNSPHEGCKFYKIVQEFYLSEVEYYNNLLTANNVYRKALNSDPRFKNKLVKLDSSDELLLFGNIDTIASISKILVTAIKDLLLAKQRGKMLDANEWQKIFTKNEVQQQLYSTFDISEAFEQHLLRIKSTYTSYFVSHQKQMELFTTLRMNKNHFFNKWYEYCLKESGCIKLEDILKSPMKRLTQWIDTLETLESCYEDILSPELGLKLSPTRRKYSLFSNKLETEVSEYKSNSMYNFSLTPSEIIQSYDEDQFTHLLKPPDKQNKNICNASRQESNLDNSRVPSLLSGSSSYYSDVSGLEIVTNTSTASAEMINLKMDEETEFFTLADHISKFKKVMKGLLELKKNLLKNDLSGIIDISLRRINAWKKVIECERPSGAFFAHDNLISTMCSSYIDKLHEQKNQVTILKLTELETDVMNPLERIIAHCTTVKSKLKDLQALKKDYMLFLQEKKANVRDIKRDLLGMHFQNLQNQMKRELPVFITLIHDTIECILLNYIKVFLKYLEIIAGGKKYLQKDLENMSLNDSIATGQIKNLDI

target: T1, Rvs161p tagged with an internal FLAG tag inserted after amino acid 85 (wild type) (S. cerevisiae); experiment: co-IP; lysates of pheromone-induced S. cerevisiae (galactose medium, 10 μg/ml pheromone, 2 hr); Rvs161p-FLAG held on anti-FLAG M2 affinity gel, 1 hr at 4°, 50 mM Tris pH 7.4, 150 mM NaCl, 0.5% Triton X-100; bound Fus2p-GFP detected by western blot with anti-GFP

binding, binds:
B1, B2, B3, B4, B5, B6, B7, B8, B9, B10, B11, B12
